Test results taken from the BET-seq Pho4 binding data (Le et al. 2018).
Some of the results follow. These are noisy estimates, calculated here from bound and input reads.

Biological target: T1, Pho4 (S. cerevisiae) (UniProt P07270)
T1 sequence: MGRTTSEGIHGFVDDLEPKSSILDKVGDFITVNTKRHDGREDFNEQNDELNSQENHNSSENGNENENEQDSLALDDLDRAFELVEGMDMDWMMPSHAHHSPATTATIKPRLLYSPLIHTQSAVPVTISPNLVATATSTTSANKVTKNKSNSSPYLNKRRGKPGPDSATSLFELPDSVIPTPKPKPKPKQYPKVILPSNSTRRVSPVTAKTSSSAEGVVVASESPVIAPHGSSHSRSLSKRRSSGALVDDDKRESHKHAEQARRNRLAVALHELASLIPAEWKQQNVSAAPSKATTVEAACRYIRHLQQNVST
Test: relative binding free energy (BET-seq); higher = weaker binding
Settings: reference: library average

Row | Sequence | relative binding free energy [kcal/mol]
1 | GAAGTCACGTGATATG | 0.13
2 | TGGTACACGTGTAAAT | 0.34
3 | TTGATCACGTGTCTTG | 0.16
4 | TGGCACACGTGGGGCG | -0.1
5 | TATGGCACGTGATTAT | 0
6 | TGGTGCACGTGTATTG | -0.07
7 | TGAGCCACGTGATTTG | 0.23
8 | GCGATCACGTGGGCTG | 0.04
9 | TTTGTCACGTGGCGGC | 0.04
10 | TTGATCACGTGTACGG | 0.23
11 | TTTGTCACGTGTTAAC | 0.13
12 | GATAGCACGTGCGGGA | -0.07
13 | AGCGGCACGTGTGGAG | -0.12
14 | TGTTCCACGTGTTGAT | 0.01
15 | CCGGGCACGTGGGGGT | -0.29
16 | TAGATCACGTGTTAGG | 0.21
17 | GTGTACACGTGAGGGC | 0.31
18 | TGGAGCACGTGAGGTT | 0.18
19 | GTGTCCACGTGGGTTA | -0.04
20 | TGTAACACGTGTTATG | -0.07
21 | TGGGACACGTGTTTGT | 0.05
22 | GGTATCACGTGAATAG | 0.51
23 | GGTGTCACGTGGGACC | 0.02
24 | CTTTACACGTGTGTCT | 0.12
25 | TTTTACACGTGTTGTG | 0.19

Row | Sequence | relative binding free energy [kcal/mol]
26 | TAGCTCACGTGGTGGT | 0.33
27 | GTTAGCACGTGTTGGA | -0.02
28 | TTGTACACGTGGAAGT | 0.13
29 | TGGATCACGTGGCTGG | 0.17
30 | CGGGGCACGTGTAATA | 0.1
31 | AGTATCACGTGGGTAA | 0.19
32 | TGGAACACGTGCTGGG | 0.02
33 | TGGTTCACGTGAAAAG | 0.34
34 | GTTCTCACGTGATTGT | 0.23
35 | GTGTCCACGTGGGGGG | -0.08
36 | AGTTGCACGTGTTTAT | -0.03
37 | GTAGACACGTGGTTTT | 0.03
38 | CGGGTCACGTGGAGGA | 0.15
39 | ATGGACACGTGAGGCG | 0.16
40 | TGTCACACGTGGTAGT | -0.03
41 | AGGGTCACGTGAGCGT | 0.19
42 | GGTTGCACGTGTGCCG | 0.11
43 | GCGCACACGTGTGGGT | -0.05
44 | TTCTGCACGTGGGTTT | -0.16
45 | TGCTTCACGTGGCTTG | 0.09
46 | ATGGGCACGTGTAGGC | -0.04
47 | TTATTCACGTGCGTTC | 0.27
48 | ATGTGCACGTGATAGG | 0.05
49 | TTATTCACGTGGAAAG | 0.36
50 | GCGTGCACGTGGGTAA | 0.01

Row | Sequence | relative binding free energy [kcal/mol]
51 | GTTTTCACGTGTTTGC | 0.22
52 | TTTGTCACGTGTGCCG | 0.04
53 | TCTTGCACGTGTCGGT | 0.04
54 | TTTGGCACGTGGTCTA | -0.28
55 | GTCAACACGTGGAGGT | 0.06
56 | TTGCTCACGTGGGCGT | 0.08
57 | GTTCTCACGTGAGGGG | 0.45
58 | GAGGACACGTGGTTGT | 0.06
59 | CGAGGCACGTGTGTAT | -0.04
60 | AGAGTCACGTGAGTGG | 0.32
61 | ATGTACACGTGGTGAC | 0.11
62 | GTGTACACGTGATCGA | 0.23
63 | ATATTCACGTGTGTCT | 0.29
64 | GCTGGCACGTGTGGAA | 0.09
65 | CTTAGCACGTGAGGCG | 0.15
66 | GGGTACACGTGTGTAA | 0.13
67 | GGGAGCACGTGGCTGG | -0.11
68 | TGATTCACGTGTTACG | 0.28
69 | TCAGGCACGTGAGTGT | -0.09
70 | GAGTGCACGTGTTCTG | -0.06
71 | TGAATCACGTGTGATA | 0.32
72 | ATTGTCACGTGCAGTG | 0.14
73 | ACGGGCACGTGATGGG | 0.04
